Test results published in US8865724B2, “Preparation of 2-methyl-4-amino-5(substituted-1H-1,2,3-triazolyl)methylpyrimidine derivatives and microbicidal activity thereof” (Central China Normal University, priority 2011, dated 2014).

Test system: Tomato Bacterial Leaf Spot
Experiment: whole plant or invertebrate
Settings: for pest or weed control at 500 µg/g: Solanum lycopersicum, read-out: Tomato Bacterial Leaf Spot Average inhibition rate (%)
Source text: Testing Materials: Strains: Tomato Bacterial Leaf Spot
(Pseudomonassyringaepv. tomato (Okabe) Young, Dye & Wilkie), Cucumber Angular Leaf Spot, Rice Sheath Blight Disease (Rhizoctonia solani), Corynespora Leaf Spot of Cucumber (Corynespora cassiicola), Downy Mildew of Cucumber (Cucumber Downy Mildew).
Inoculation of the suspension of spore by root irrigation is used for fusarium wilt of cucumber. Strip inoculation is used for Rice Sheath Blight Disease and phytophthora blight of pepper, in which the liquor was sprayed and after 2 hours, inoculation of strips was performed followed by culturing at humidity.

Compound | pest or weed control at 500 µg/g [%] | Tomato Bacterial Leaf Spot Average inhibition rate (%) (testing concentration of 500 μg/g)
Cc1ncc(Cn2cc(COC(=O)c3ccccc3Cl)nn2)c(N)n1 [Compound 36] | 80 | –
Cc1ccc(C(=O)OCc2cn(Cc3cnc(C)nc3N)nn2)cc1 [Compound 38] | 95 | –
Cc1ncc(Cn2cc(COC(=O)c3ccc(Cl)cc3)nn2)c(N)n1 [Compound 33] | 70 | –
Cc1ncc(Cn2cc(COC(=O)c3ccc([N+](=O)[O-])cc3)nn2)c(N)n1 [Compound 32] | 70 | –
Cc1ncc(Cn2cc(COC(=O)c3ccccc3F)nn2)c(N)n1 [Compound 37] | 70 | –
Cc1ncc(Cn2cc(COC(=O)c3ccc(F)cc3)nn2)c(N)n1 [Compound 34] | 60 | –
Cc1ncc(Cn2cc(COC(=O)c3cccc(Cl)c3)nn2)c(N)n1 [Compound 39] | 80 | –
Cc1ncc(Cn2cc(COC(=O)c3cc([N+](=O)[O-])cc([N+](=O)[O-])c3)nn2)c(N)n1 [Compound 35] | 80 | –
Zhongshengmycin [reference compound] | – | 60
